Source: paper PMC6919601, “Identification of Plasmodium dipeptidyl aminopeptidase allosteric inhibitors by high throughput screening” (PLoS ONE, 2019)
About 230 (0.21%) of roughly 110,000 compounds showed an effect of 50% or more. This is one part of the list.

biological target: DPAP1 (Plasmodium falciparum, UniProt Q8IIJ9); assay: primary screen, percent inhibition; read by cleavage of a fluorogenic dipeptide substrate; higher = more effect of the substance; set-up: species or system P. falciparum D10 trophozoite lysates; single well
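Also: 30 min substrate incubation versus DMSO and 10 µM JCP410 controls.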

Sequence of DPAP1 (Q8IIJ9 whole entry, looked up): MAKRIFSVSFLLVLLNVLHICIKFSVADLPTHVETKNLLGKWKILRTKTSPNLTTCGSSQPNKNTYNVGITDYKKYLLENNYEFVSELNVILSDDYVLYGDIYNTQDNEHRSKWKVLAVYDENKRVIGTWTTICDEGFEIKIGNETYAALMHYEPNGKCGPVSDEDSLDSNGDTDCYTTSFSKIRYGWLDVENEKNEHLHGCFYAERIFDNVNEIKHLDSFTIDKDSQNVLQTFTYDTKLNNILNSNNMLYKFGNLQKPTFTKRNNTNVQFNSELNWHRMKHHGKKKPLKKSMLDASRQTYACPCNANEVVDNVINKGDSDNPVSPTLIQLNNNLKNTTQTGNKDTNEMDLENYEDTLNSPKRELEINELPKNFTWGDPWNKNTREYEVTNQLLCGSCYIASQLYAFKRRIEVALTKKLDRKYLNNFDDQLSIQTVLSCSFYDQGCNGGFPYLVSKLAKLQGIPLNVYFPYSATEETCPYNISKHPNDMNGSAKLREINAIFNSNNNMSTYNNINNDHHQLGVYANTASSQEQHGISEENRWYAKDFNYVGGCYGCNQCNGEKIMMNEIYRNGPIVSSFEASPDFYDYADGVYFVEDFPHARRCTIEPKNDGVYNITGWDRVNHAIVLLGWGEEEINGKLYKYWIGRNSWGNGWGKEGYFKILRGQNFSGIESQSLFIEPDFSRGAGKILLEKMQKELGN

Row | SMILES | % Inhibition @ 10 uM
1 | CCn1c2ccccc2c2cc(CNc3ccccc3F)ccc21 | 6.06%
2 | Cn1c(S)nnc1CSc1nc2ccccc2s1 | -6.69%
3 | c1cnc(N2CCN(Cc3ccoc3)CC2)nc1 | -6.21%
4 | CC(C)(C)OC(=O)N1CC2CC(C1)c1c(Br)cc(Br)c(=O)n1C2 (stereo not drawn) | -3.21%
5 | Cn1c2c(c(=O)n(C)c1=O)C(c1ccc(C(F)(F)F)cc1)C1=C(O)c3ccccc3C1=N2 (stereo not drawn) | 5.28%
6 | NS(=O)(=O)c1ccc(-n2ncc3c(O)nc(SCC(=O)NC4CCCCC4)nc32)cc1 | 3.61%
7 | COc1ccc(CN2CCC(O)CC2)c(C)c1C | -7.49%
8 | CC1CCN(CCNc2ncnc3onc(-c4ccc(F)cc4)c23)CC1 | 3.08%
9 | CCCc1cc(=O)n2nc(N3CCC(C(=O)NC(C)C45CC6CC(CC(C6)C4)C5)CC3)sc2n1 (stereo not drawn) | -3.79%
10 | Cc1nc2cc(/N=C/c3c(C)nn(-c4ccc(F)cc4)c3O)ccc2[nH]1 | 4.61%
11 | CSc1ccc(C2C(C#N)=C(N)Oc3cc(C)nc(O)c32)cc1 (stereo not drawn) | -1.11%
12 | Cc1nc2c(-c3ccc(F)cc3)c(C)nn2c(C)c1CC(=O)NCCCc1ccccc1 | 4.14%
13 | Cc1nc2c(C(=O)NCCN(C)Cc3ccccc3)cnn2c(C)c1Cc1ccccc1 | -2.26%
14 | CC(=O)N1CCN(c2ccc(NC(=O)COc3ccc(Cl)cc3)cc2)CC1 | -5.23%
15 | CCOc1ccccc1NC(=O)C1CC(=O)N(c2ccc(OCc3ccc(Cl)cc3)cc2)C1 (stereo not drawn) | -2.6%
16 | CCCCNc1oc(/C=C/c2cccs2)nc1C#N | -3.49%
17 | O=C(Nc1ccccc1)c1ccccc1NC(=O)C1CC1 | -0.173%
18 | CC(=O)c1cccc(NC(=O)c2cc(C)c(C)o2)c1 | 5.16%
19 | Cn1c(=O)c(C(=O)Nc2nc(C34CC5CC(CC(C5)C3)C4)cs2)c(O)c2ccccc21 | 20.6%
20 | Nc1cc(N)nc(SCc2ccccc2)n1 | -0.216%
21 | CCOc1ccc(C2NC(C(=O)O)CS2)cc1OC (stereo not drawn) | -0.105%

Row | SMILES | % Inhibition @ 10 uM
22 | CCOC(=O)N1CCC(N2Cc3cccc(C(=O)N4CCC(Cc5ccccc5)CC4)c3C2=O)CC1 | 2.9%
23 | Cc1ccc2c(CNC3CCCCCC3)c(C(=O)O)n(Cc3ccc(F)cc3Cl)c2c1 | -5.63%
24 | CCCCC(=O)Nc1nc2ccc(OCC)cc2s1 | -4.68%
25 | Cc1c(CC(=O)N2CCOCC2)c(=O)oc2c(C)c(O)ccc12 | -4.39%
26 | Cn1cccc1Cc1nnc(SCC(=O)NCc2ccco2)n1-c1ccc(F)cc1 | -2.19%
27 | COc1cc(CNC(=O)Cn2nc(C(F)(F)F)cc2C2CC2)cc(OC)c1 | -1.04%
28 | CN(C)c1ccnc(NCc2ccccc2)c1C#N | 3.01%
29 | O=C1c2ccccc2C(Nc2cccnc2)N1c1ccccn1 (stereo not drawn) | -2.83%
30 | CC(NC(=O)CC/N=c1/c(N2CCCC2)c(O)c1=O)c1ccccc1 (stereo not drawn) | 1.68%
31 | CC(=O)N1CCC2(CC1)C(C#N)=C(N)Oc1[nH]nc(C)c12 | 2.48%
32 | COC(=O)C1=C(N)Oc2cc(C)n(Cc3cccnc3)c(=O)c2C1c1ccc(OC)c(OC)c1OC (stereo not drawn) | -1.11%
33 | CCc1c(C)sc(NC(=O)COCc2cc(-c3cccs3)on2)c1C#N | 4.36%
34 | Cc1[nH]nc2c1C1(C(=O)Nc3ccccc31)C(C#N)=C(N)O2 (stereo not drawn) | 4.3%
35 | Cc1ccccc1N(C)S(=O)(=O)c1ccc(Cl)cc1 | 0.345%
36 | Cn1c(C(=O)O)c(CNCc2ccccc2Cl)c2ccccc21 | -2.95%
37 | Cc1ccccc1OCCSc1nc(O)c2ccccc2n1 | 1.62%
38 | O=C(CCc1nc2ccccc2[nH]1)N1CCC(Cc2ccccc2)CC1 | -9.95%
39 | c1ccc2c(CSc3nc4ccccc4o3)cccc2c1 | -2.48%
40 | CCOC(=O)c1cc(-c2ccccc2)n(CC(=O)N2CCN(C3CCCCC3)CC2)c1C | -7.66%
41 | COc1ccc(S(=O)(=O)Nc2ccc(Cl)cc2Cl)cc1 | -5.11%
42 | Cc1ccc(-c2noc(CCC(=O)N3CCCCC3C)n2)cc1 (stereo not drawn) | 2.42%

Row | SMILES | % Inhibition @ 10 uM
43 | O=c1c(/C=N/C2CCS(=O)(=O)C2)c(N2CCOCC2)nc2ccccn12 (stereo not drawn) | 5.94%
44 | O=C(O)CCN1C2=C(C(=O)CCC2)C(c2ccccc2OCc2cccc(F)c2)C2=C1CCCC2=O | -3.13%
45 | COc1ccc(C2OCC3(CO2)SC2=NCN(C)CN2C3=O)cc1 (stereo not drawn) | 4.46%
46 | Cc1ccnc(NC(=O)C2CCCN(c3ncnc4onc(C)c34)C2)c1 (stereo not drawn) | 1.67%
47 | CC1(c2ccc(Br)cc2[N+](=O)[O-])CC1 | -6.11%
48 | O=C(Cn1c(=O)sc2ccccc21)OC1CCCC1 | -6.24%
49 | Cc1cc(-c2cc(C(=O)O)c3ccccc3n2)c(C)s1 | -2.87%
50 | CCCc1noc(-c2ccc(OC)c(OC)c2)n1 | -2.27%
51 | Cc1cc(C)nc(SCc2nnc(SCC(N)=O)n2-c2ccc(F)cc2)n1 | -2.45%
52 | CCOCCCN1C(=O)CN(C2CCCCC2)C(=O)C1c1ccc(OC)c(OC)c1 (stereo not drawn) | -2.14%
53 | CCS(=O)(=O)N1CCC(C(=O)N2CCC3(CC2)OCCO3)CC1 | 3.79%
54 | O=C(Cn1ncc2c3ccccc3n(Cc3ccccc3)c2c1=O)N1CCN(c2ccccn2)CC1 | 4.95%
55 | COc1ccccc1NS(=O)(=O)CC(C)C | -2.35%
56 | Cc1ccc(Oc2ccc(NC(=O)CCCC(=O)O)cc2)cc1 | -4.68%
57 | Cc1ccc(-n2c(C)cc(/C=C3\SC(=O)NC3=O)c2C)cc1 | -1.07%
58 | COc1ccc(CNC(=O)C(c2ccccc2)N2Cc3ccccc3C2=O)cc1 (stereo not drawn) | -2.15%
59 | CC(C)OC(=O)c1c(NC(=O)COc2ccc(Cl)cc2)sc2c1CCCC2 | 9.77%
60 | CCOc1ccc(-n2c(C)c(C(C)=O)c3cc(O)ccc32)cc1 | -5.28%
61 | CSc1ncc(Cl)c(C(=O)Nc2c(C(=O)c3ccccc3)oc3ccccc23)n1 | 0.569%
62 | C/C(=N\CCCn1ccnc1)C1=C(O)c2ccccc2C1=O | 0.685%
63 | CCc1c2c(nc3sc(C(=O)Nc4ccccc4F)c(N)c13)CC(C)(C)CC2=O | 3.74%
